Reference: paper PMC3630886
Results are given in words; binding and its absence hold for the method and conditions named. Binding seen in cells or lysates may run through a third protein. Some entries that bind do so weakly or less than the wild type. For some assays here: Where a sequence is shown, tags or fusion partners need not be part of it.

Protein sequences, listed by entry. Tags and fused reporters are not part of them. Lines headed by an entry give the natural chain unless they say otherwise; changes in a name come on top.
UniProt P61204: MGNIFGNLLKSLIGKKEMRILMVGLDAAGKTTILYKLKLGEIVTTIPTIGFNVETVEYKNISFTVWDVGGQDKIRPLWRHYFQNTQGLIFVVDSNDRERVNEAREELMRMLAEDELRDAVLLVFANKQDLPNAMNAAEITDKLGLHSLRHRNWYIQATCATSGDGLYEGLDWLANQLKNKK
UniProt P18085: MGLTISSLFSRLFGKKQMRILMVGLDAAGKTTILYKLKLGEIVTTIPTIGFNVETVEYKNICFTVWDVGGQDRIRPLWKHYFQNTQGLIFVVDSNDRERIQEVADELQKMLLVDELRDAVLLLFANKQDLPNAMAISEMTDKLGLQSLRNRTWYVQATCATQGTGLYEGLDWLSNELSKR
UniProt P84077: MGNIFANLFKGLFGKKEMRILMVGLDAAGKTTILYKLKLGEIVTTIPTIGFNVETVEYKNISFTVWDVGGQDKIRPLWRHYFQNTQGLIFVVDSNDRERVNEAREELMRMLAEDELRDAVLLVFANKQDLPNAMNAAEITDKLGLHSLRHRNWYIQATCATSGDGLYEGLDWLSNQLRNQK

Legend:
[1] = biological target: BIG2 (endogenous) (human (endogenous in HeLa)) (UniProt Q9Y6D5); assay: co-IP; HeLa cells transfected with HA-tagged ARF mutants for 24 h; endogenous BIG2 immunoprecipitated from cell lysates; input and bound material immunoblotted with anti-HA
[2] = biological target: T1, GST chimera containing the DCB (amino acids 1–250) domain of BIG2 (UniProt Q9Y6D5); assay: pull-down; lysates of HeLa cells transfected with HA-tagged ARF Q71L mutants for 24 h incubated with purified GST or GST chimeras of BIG2; input and bound material immunoblotted with anti-HA; only the target purified
T1 sequence: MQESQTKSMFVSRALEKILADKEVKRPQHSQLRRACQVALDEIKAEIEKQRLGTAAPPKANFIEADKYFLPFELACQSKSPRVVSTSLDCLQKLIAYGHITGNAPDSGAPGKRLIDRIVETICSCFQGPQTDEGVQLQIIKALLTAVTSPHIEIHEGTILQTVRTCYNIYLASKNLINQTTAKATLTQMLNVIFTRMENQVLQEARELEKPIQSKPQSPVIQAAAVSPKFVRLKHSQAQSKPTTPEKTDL

| binding [1] | binding [2] | Substance |
| --- | --- | --- |
| binds |  | ARF3/T31N, HA-tagged (from UniProt P61204 1-181) |
| no binding |  | ARF4/T31N, HA-tagged (from UniProt P18085 1-180) |
| binds weakly | no binding | ARF3/Q71L, HA-tagged (from UniProt P61204 1-181) |
| binds |  | ARF1/T31N, HA-tagged (from UniProt P84077 1-181) |
